The campaign covered roughly 310,000 compounds. About 2,200 (0.71%) showed an effect of 50% or more. Effects have a minus sign here. Some of the results follow.
target: human ether-à-go-go-related gene (hERG) potassium channel (human, UniProt Q12809); test: primary screen, population patch clamp on CHO cells stably expressing hERG
Sequence (Q12809 whole entry, looked up): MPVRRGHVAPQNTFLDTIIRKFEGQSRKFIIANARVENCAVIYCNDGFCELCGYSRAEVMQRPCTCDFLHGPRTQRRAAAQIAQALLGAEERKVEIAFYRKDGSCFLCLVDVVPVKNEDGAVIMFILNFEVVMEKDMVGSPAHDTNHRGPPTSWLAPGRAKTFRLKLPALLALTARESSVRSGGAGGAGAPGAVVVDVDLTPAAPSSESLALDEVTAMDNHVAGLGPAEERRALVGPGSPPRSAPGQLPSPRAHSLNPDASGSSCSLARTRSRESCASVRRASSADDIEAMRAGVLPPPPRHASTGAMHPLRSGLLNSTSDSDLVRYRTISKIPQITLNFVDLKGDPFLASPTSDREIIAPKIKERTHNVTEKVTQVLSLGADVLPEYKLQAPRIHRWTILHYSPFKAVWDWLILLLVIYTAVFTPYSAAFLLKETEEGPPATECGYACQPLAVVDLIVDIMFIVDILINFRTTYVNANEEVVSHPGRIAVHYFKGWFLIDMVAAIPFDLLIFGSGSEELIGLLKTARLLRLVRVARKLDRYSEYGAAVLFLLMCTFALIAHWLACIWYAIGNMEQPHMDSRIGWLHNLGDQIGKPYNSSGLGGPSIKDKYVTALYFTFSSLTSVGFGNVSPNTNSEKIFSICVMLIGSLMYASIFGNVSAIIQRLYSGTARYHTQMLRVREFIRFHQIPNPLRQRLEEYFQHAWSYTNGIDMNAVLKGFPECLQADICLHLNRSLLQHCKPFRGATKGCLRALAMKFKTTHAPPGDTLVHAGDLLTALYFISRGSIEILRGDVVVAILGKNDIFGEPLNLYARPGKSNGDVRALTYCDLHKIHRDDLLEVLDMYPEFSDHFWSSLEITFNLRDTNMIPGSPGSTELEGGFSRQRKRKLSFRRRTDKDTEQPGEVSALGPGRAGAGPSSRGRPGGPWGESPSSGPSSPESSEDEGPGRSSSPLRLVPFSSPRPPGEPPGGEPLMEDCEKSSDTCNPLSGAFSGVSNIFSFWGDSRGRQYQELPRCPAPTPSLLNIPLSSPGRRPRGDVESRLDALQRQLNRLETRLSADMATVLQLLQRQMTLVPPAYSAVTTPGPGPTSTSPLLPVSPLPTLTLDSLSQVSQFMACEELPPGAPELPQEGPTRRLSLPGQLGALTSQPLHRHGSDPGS

| SMILES | hERG current change (%, negative = inhibition) at 1uM [%] |
| --- | --- |
| O=C(COC(=O)C1CCC(=O)N1)Nc1ccc(Br)cc1 (stereo not drawn) | 12.2 |
| CC(=O)c1c(NC(=O)c2ccccc2)[nH]c(-c2ccccc2)nc1=S | 4.82 |
| CC(C)(C)NC(=O)CN(Cc1cccs1)C(=O)CNS(=O)(=O)c1ccccc1 | 18.7 |
| CC(C)(C)NC(=O)CSCc1ccc(Br)cc1 | 1.24 |
| COc1ccc(S(=O)(=O)N2CCCCC2)cc1NC(=O)c1cncc(Br)c1 | 3.01 |
| COc1ccc(-c2cc(C(=O)Nc3c(C)nn(Cc4ccccc4Cl)c3C)no2)cc1 | 12.8 |
| Cn1c(CNC(=O)CCNC(=O)c2ccc(Br)cc2)cc(=O)n(C)c1=O | 5.63 |
| CCn1c(SC2CCOC2=O)nnc1-c1ccc(Cl)cc1 (stereo not drawn) | 10.8 |
| O=C(CSCc1ccccc1Cl)NN1C(=O)c2ccccc2C1=O | -12.5 |
| COc1cc2c(=O)n(CCC(=O)NCC3CCCO3)c(=O)n(CC(=O)Nc3ccc(C)cc3C)c2cc1OC (stereo not drawn) | 14.4 |
| Cc1cccc(C)c1NC(=O)CN(C)C(=O)C(c1ccccc1)c1ccccc1 | 2.71 |
| O=C(CO/N=C/c1ccc(OC(F)F)cc1)NCc1cccs1 | -3.37 |
| COc1cccc2c(=O)c(C(=O)NCc3cccs3)c[nH]c12 | 23.5 |
| O=C(c1cccc(COCC(F)(F)C(F)F)c1)N1CCN(c2ccccc2)CC1 | -7.92 |
| Cc1ccc(CNC(=S)Nc2cc(C(=O)O)ccc2C)cc1 | 13.1 |
| O=C(Nc1ccccc1)c1ccc(Nc2c([N+](=O)[O-])cc([N+](=O)[O-])c3ccccc23)cc1 | 12.9 |
| CC1C(=O)N2CCCc3cc(S(=O)(=O)NCc4ccc(F)cc4)cc1c32 (stereo not drawn) | 0.411 |
| COc1ccc(COc2ccccc2C(=O)NCc2ccccc2)cc1F | 17.3 |
| Cc1sc2ncn(CC(=O)NCc3ccco3)c(=O)c2c1-c1ccccc1 | -1.52 |

| SMILES | hERG current change (%, negative = inhibition) at 1uM [%] |
| --- | --- |
| Cc1ccc(-c2nc(N)sc2-c2ccccc2)cc1C | 13.3 |
| COc1ccc(CNc2nc3ccccc3s2)cc1OC | 8.99 |
| Nn1c(Cc2ccccc2)nc2ccccc2c1=O | 13.8 |
| COc1ccc(CC(NC(C)=O)C(=O)NC2CCN(S(=O)(=O)c3ccc(NC(C)=O)cc3)CC2)cc1 (stereo not drawn) | 14.1 |
| CCOCCCNC(=O)C1CCCN1C(=O)NC1CCCCC1 (stereo not drawn) | 9.54 |
| COc1cc(/C=C/c2cc(C(=O)O)c3ccccc3n2)ccc1OC(F)F | 14.8 |
| O=C(COC(=O)C1(c2ccccc2)CCCC1)N1CCNC1=O | 1.78 |
| COc1ccc(CC(O)CC2c3c(cc4c(c3OC)OCO4)CCN2C)cc1.Cl (stereo not drawn) | -51.8 |
| CSc1ncccc1C(=O)Nc1nc2ccc(S(C)(=O)=O)cc2s1 | 10.4 |
| CC1(c2ccc(Cl)cc2)NC(=O)N(CC(=O)Nc2ccc(N3CCCCC3)cc2)C1=O (stereo not drawn) | 11.2 |
| CCn1c(C2CC(=O)N(c3ccc(C)c(C)c3)C2)nc2ccccc21 (stereo not drawn) | 11.7 |
| Cc1ccccc1OCC(=O)N1CCc2ccccc2C1 | 15.1 |
| CN(C)CCN(C(=O)c1ccc2c(c1)OCCO2)c1nc2c(Cl)cccc2s1.Cl | 0.945 |
| CC(c1ccccc1)N1CC(C(=O)NC2CCCC2)CC1=O (stereo not drawn) | -4.04 |
| COc1cc(/C=N/NC(=O)c2ccc(CN3C(=O)c4cccc5cccc3c45)cc2)cc(OC)c1O | 11.2 |
| O=C(COC(=O)/C=C/c1cccc(Br)c1)NCc1ccco1 | 11.7 |
| O=C(N/N=C/c1cccc([N+](=O)[O-])c1)c1cc(-c2ccc3c(c2)OCO3)n[nH]1 | 11 |
| CCOC(=O)CN1N=C(/C=C/c2ccc(C(C)C)cc2)CCC1=O | 9.01 |
| CCn1c(=O)c([N+](=O)[O-])c(NCCN(C)C)c2ccccc21 | 19.4 |

| SMILES | hERG current change (%, negative = inhibition) at 1uM [%] |
| --- | --- |
| Cc1ccc(NC(=O)C2=NNC(=O)CC2)cc1F | 10.1 |
| COC(=O)CC1C(=O)NCCN1C(=S)NC(=O)c1ccccc1[N+](=O)[O-] (stereo not drawn) | 5.3 |
| COc1ccc(NC(=S)N(CCCN2CCOCC2)Cc2ccco2)cc1 | 2.16 |
| Cc1[nH]c2ccccc2c1C(=O)C(=O)N1c2ccccc2CC1C (stereo not drawn) | 2.09 |
| OC[C@H]1OC(O)[C@@H](O)[C@@H](O)[C@@H]1O (stereo partly drawn) | 13.2 |
| O=C(NC1(C(F)(F)F)NC(=O)N(C2CCCCC2)C1=O)C1CC1 (stereo not drawn) | 12.2 |
| CN(C)c1cc(-c2cccc([N+](=O)[O-])c2)oc(=O)c1Cl | 1.79 |
| COc1cc(S(=O)(=O)n2nnc3ccccc32)c(OC)cc1Cl | 10.6 |
| CCc1c(C)nc(N)n2c(SCC(=O)N3CCCC(C)C3)nnc12 (stereo not drawn) | -5.85 |
| COc1cc(OC)cc(-c2nn[nH]n2)c1 | 10.2 |
| Cc1ccc(S(=O)(=O)NC(=O)COc2ccc([N+](=O)[O-])cc2)cc1 | 7.29 |
| COc1ccc(CC(=O)NCC(=O)N/N=C(/C)c2ccco2)cc1 | 5.67 |
| CN(c1ccc(C(=O)Nc2cccc(O)c2)cc1)S(=O)(=O)c1ccccc1 | 7.55 |
| Cc1ccc(F)c(NC(=O)CCc2ccccc2)c1 | 13.5 |
| CC(C)c1ccc(NC(=O)c2ccc(Br)o2)cc1 | 8.71 |
| O=C(CSc1ccc2c(c1)OCCO2)Nc1cccc(S(=O)(=O)N2CCCCC2)c1 | 12.7 |
| O=C(CSc1nc(=O)n2ccccc2n1)NCc1ccccc1 | 8.87 |
| O=C(CSc1nc2c(cnn2-c2ccccc2)c(=O)[nH]1)c1ccc(Cl)cc1 | 7.01 |
| N=c1c2c(-c3ccccc3)c(-c3ccccc3)oc2ncn1CCN1CCOCC1 | -63.5 |

— publication PMC4336329 (PLoS ONE, 2015)
